# In the supplement of paper PMC3334620:
# In all, about 33,000 sequences were measured (“E-score (-0.5 to 0.5)”: median about -0.035, highest 2% from about 0.34 on). Some of the results follow.
# Target: T1, Mot3 (UniProt P54785)
# T1 sequence: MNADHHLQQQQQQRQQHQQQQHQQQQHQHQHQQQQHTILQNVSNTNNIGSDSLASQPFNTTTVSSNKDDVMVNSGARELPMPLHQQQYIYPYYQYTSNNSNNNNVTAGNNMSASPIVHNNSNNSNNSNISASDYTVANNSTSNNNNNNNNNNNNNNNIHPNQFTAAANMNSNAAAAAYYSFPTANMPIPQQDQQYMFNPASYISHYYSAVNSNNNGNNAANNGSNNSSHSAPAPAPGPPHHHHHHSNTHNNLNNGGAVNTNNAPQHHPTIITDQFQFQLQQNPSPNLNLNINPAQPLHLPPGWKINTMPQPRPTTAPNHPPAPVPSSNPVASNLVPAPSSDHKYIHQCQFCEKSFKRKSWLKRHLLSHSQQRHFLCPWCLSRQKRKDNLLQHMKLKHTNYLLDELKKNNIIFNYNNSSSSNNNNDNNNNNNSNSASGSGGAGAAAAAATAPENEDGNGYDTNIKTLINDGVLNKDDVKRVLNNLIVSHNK
# Assay: PBM E-score (8-mer binding enrichment) (E-score (-0.5 to 0.5)); higher = stronger / more preferred TF binding; most listed sequences are background and not binding sites
# Conditions: protein concentration: 200 nM; construct: GST-full length
# Procedure, shortened: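 Universal all-10-mer Agilent arrays, fresh or stripped once, were converted to double-stranded form by primer extension. GST-tagged yeast transcription factors from PURExpress in vitro transcription/translation, full-length or DNA-binding domain only, were applied at about 100-200 nM and detected with fluorescent anti-GST. After masliner normalisation, the Universal PBM Analysis Suite scored each ungapped eight-base word together with its reverse complement by E-score.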
row,Sequence,PBM E-score
1,AATGTCTA,0.129
2,TTGCAAAA,0.00474
3,GGAGATCC,-0.276
4,AATGTTAA,0.279
5,AGACCGCA,-0.157
6,ACTGCGAT,-0.227
7,CAAGCAAG,-0.102
8,CACCGACC,-0.029
9,AGAGTTCA,-0.0722
10,CATTTGGA,0.0764
11,CGGGGGGA,-0.342
12,GACCCGTC,-0.162
13,AGGGCTGG,-0.237
14,AACATATA,0.251
15,CTAAGTTC,-0.0513
16,TAGTCTCA,-0.15
17,AAGGGTGC,-0.114
18,ACCCCACA,0.0239
19,CATTTCCG,-0.0295
20,AACCTACT,0.124
21,CTCGGAGC,-0.121
22,ACCCAGAG,-0.269
23,CTACGACA,0.0782
24,CCCGCCAG,-0.0395
25,CAAAAAGA,0.0742

row,Sequence,PBM E-score
1,CGTTAGGC,0.205
2,GGCCTCGA,-0.0581
3,CCTGGCAA,-0.0523
4,AGCTCCAA,-0.0344
5,TCAAGGGA,-0.213
6,AGGCGCGA,0.0693
7,ATCAACCC,0.148
8,GCTTCCCC,-0.245
9,GTCACTAA,0.108
10,ATTACCGC,0.0705
11,AAGATTTC,0.0869
12,ACCATTTG,-0.0739
13,ATCATCTG,-0.0881
14,AGCTTGAA,-0.122
15,GAACTAAA,0.0819
16,TCAGACCA,-0.201
17,GCGATTAA,-0.0553
18,CGTGTCAA,0.342
19,CAGTCCCG,-0.225
20,GAGGCGTA,0.0467
21,CGTGCTAG,-0.0215
22,AGTAGCTG,-0.103
23,AACTATAT,0.147
24,ATAGGCGG,0.0649
25,GGACAGAC,-0.15

row,Sequence,PBM E-score
1,CGCGACAC,-0.0191
2,ATTTTACC,0.172
3,CGCTTCCA,-0.199
4,GTTTGGAA,0.00293
5,CGTGAGCA,-0.223
6,CAATACCG,0.0384
7,ACTTCTCA,-0.0486
8,GACAGTGC,-0.0882
9,AGTGCGTA,0.18
10,GAAGGATC,0.0378
11,ACCACGTA,0.21
12,CGAGGAAG,-0.203
13,CCTTATGA,-0.0503
14,GGAGCGCA,-0.281
15,CAAGTTAC,0.17
16,CCTTTCAG,0.00251
17,GCCACATA,-0.124
18,CGCTTACC,-0.0192
19,GTTTGAAA,0.0991
20,ACAATGTG,0.145
21,ACATGCGT,0.341
22,CCTTAACG,0.197
23,CACCACCA,-0.177
24,AAATGCGG,-0.0946
25,AGATCTTA,-0.0626

row,Sequence,PBM E-score
1,GCGCATTA,0.118
2,CGTGATGC,-0.108
3,CGGGATGC,-0.128
4,CCGACGGC,-0.0929
5,CTTGCGCA,-0.127
6,GTTACTCA,0.164
7,CCATTGGA,-0.123
8,GATGTGTA,0.347
9,CGACGGAC,-0.19
10,AAAATGAA,0.0677
11,CATTTCGC,-0.122
12,ATCAAGCG,-0.173
13,CTTTGCGC,0.0652
14,GACAATCA,0.0115
15,CTTAAACC,-0.0672
16,GGACCACC,-0.294
17,GGCCCACA,-0.194
18,CGAGTAAG,0.00102
19,CACGTGGC,-0.0488
20,CCTGTTTA,0.209
21,AGGCGGTC,-0.116
22,CCTCGCGA,-0.18
23,ACAAGTGG,-0.0425
24,CGATGAAC,-0.113
25,ACATGCAA,0.261

row,Sequence,PBM E-score
1,ATCCGTAC,0.0206
2,GGAACATA,0.174
3,CTAACGGA,-0.115
4,CGATGTAG,0.103
5,CTTTCTTC,0.0228
6,AACAAATT,0.192
7,AGGATACG,-0.00899
8,AGAAATAC,0.179
9,GCGATGAA,-0.107
10,AGCTAGTA,0.0384
11,CTTCAAAC,-0.0135
12,ATGGTAGA,-0.105
13,CTGAAACA,0.197
14,AACACGGT,0.353
15,GAGGAGGC,-0.0566
16,AGCTAGCT,-0.155
17,AGTATTTA,0.0873
18,AAGCAAGC,-0.162
19,AGTGAGCG,-0.206
20,GTAAATAC,0.228
21,GGAGTGCA,-0.198
22,TTGCGAAA,0.168
23,AAGTTTCC,0.177
24,AATGTGCA,0.101
25,GAAAAGTA,0.0562

row,Sequence,PBM E-score
1,AGCATGGG,-0.045
2,GAATGAGA,-0.141
3,AAAGAATC,0.0124
4,GATCTGCC,-0.0298
5,ATACGATC,-0.0707
6,ACAGCAAT,0.0493
7,GAGCAGCA,-0.129
8,CCGTTCCC,-0.126
9,GTAGTCAC,0.275
10,CTAGAGGA,0.0404
11,AGAGCTAG,-0.102
12,AGTGTAGC,0.0209
13,GCCTGCAA,0.326
14,AAGGGGTG,0.0283
15,ACTTCGAT,-0.12
16,CGCTACTC,-0.251
17,AACTCATT,-0.201
18,CATGCATG,0.0529
19,AGTGGCCA,-0.158
20,TAGTTTAA,0.196
21,CGAGACTC,-0.242
22,GAGGTCGC,-0.277
23,GACCGGGC,-0.281
24,AGTACCGG,-0.0874
25,AGAATACC,-0.0543

row,Sequence,PBM E-score
1,CTAAGTAG,0.132
2,TAACCCTA,0.0752
3,GCGTAGCA,-0.112
4,ACCGCCGT,-0.266
5,ATCGGCGA,-0.331
6,AACGATTA,0.139
7,ATACGTAT,0.265
8,ATAGATTC,0.108
9,ACCCTGCA,0.0203
10,CAACATGG,0.337
11,ATGGCACG,-0.0627
12,GCTCCCCA,-0.188
13,CTTGGGCA,0.105
14,AAAAGTGT,0.0608
15,GGGACGTA,0.0574
16,GAGACTGA,-0.217
17,CTAACCTA,-0.0541
18,GAATCGAC,-0.166
19,CGCTTACA,0.185
20,GCCCATAA,-0.0566
21,AATTACCA,0.174
22,GCTCACCA,-0.172
